From paper PMC12136788
Changes are numbered by the printed parent chain. This is one part of the list.

T1: UNK ZnF1-3 (human, UniProt Q9C0B0 31-174)
T1 sequence: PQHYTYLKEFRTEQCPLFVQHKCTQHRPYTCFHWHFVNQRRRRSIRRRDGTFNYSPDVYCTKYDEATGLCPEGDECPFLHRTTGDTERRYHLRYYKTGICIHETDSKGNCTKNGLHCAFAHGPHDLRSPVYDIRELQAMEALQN

B1: chr20:17587764:17587765:+_ENSG00000125868_ENST00000474024|hu_hu|motif|central (ssRNA)
RNA: GGGAGUUCUACAGUCCGACGAUCGUGGCACUGAAUAAUCUACACAGGGCAUCCUUCAAAGGCUACAAUUAAGGAUCCACCGGACUUUUCAGCAAUACAAGCCCGAUUGAGAUCUUCUGGUCCAUUUGCUUGACAUUCAUGUUUCAACAGAGGAUUGAGCAUCA
B2: chr3:41280641:41280642:+_ENSG00000168036_ENST00000349496|hu_hu|motif|central (ssRNA)
RNA: GGGAGUUCUACAGUCCGACGAUCCAUGGGGUCCAUACCCAAGGCAUCCUGGCCAUAUCCACCAGAGUGAAAAGAACGAUAGCGGGGAUCAUCCUGGCGAUAUCCAAGGGGUUCUCCCUGGGCACCAAUAUCAAGUCCAAGAUCCAACAGAGGAUUGAGCAUCA
B3: chr20:32246340:32246341:-_ENSG00000125967_ENST00000246190|hu_hu|FALSE|FALSE (ssRNA)
RNA: GGGAGUUCUACAGUCCGACGAUCUCUCCAGGAGGCCUCAUCCUGCCAGAACUCAUACAGGGUGAAGGAGGCACCGUCCAGCAUCUUCUGGGCGGACACAUGCAGACAAUGGCUCUGGGCCCCUGUGAAGUCCACAUAGCAGCGCAACAGAGGAUUGAGCAUCA
B4: chr8:3623242:3623243:+_ENSMUSG00000087687_ENSMUST00000156380|mus_hu|motif|central (ssRNA)
RNA: GGGAGUUCUACAGUCCGACGAUCCUGCUGGGCGUCGCGAAGGAGCUUCUCCUCCCGCCGCUUCCGUAACCUCUCUUUGAAUUCCUCGGUCUCUUGAAGCUUCUCAGGUGGCCACAGCUCCCUCUUGCGCUGUAUGACAUCGUCCAACAGAGGAUUGAGCAUCA
B5: chr6:40197388:40197389:+_ENSMUSG00000057716_ENSMUST00000061740|mus_mus|mus_mus_mus_hu_False|98_98 (ssRNA)
RNA: GGGAGUUCUACAGUCCGACGAUCGAGACACUGGGGUGGAUGGCACCCACCUCUGUUUGGGUGCUAGCCACUAAGACUGUUAUUUUGGGAUUCAUGGCCUUGAAUAUCAAGAGGGAAAGGAAGAGGAUGGAAAGAGUCAAGAGUCAACAGAGGAUUGAGCAUCA
B6: chr3:57569700:57569701:-_ENSG00000168374_ENST00000303436|hu_hu|FALSE|FALSE (ssRNA)
RNA: GGGAGUUCUACAGUCCGACGAUCCACAAAAAUAAGACCCUGGGUAUUCUGGAAGUAAUGCUUCCAGAGAGGCCUAAUUCUAUCUUGACCACCAACAUCCCAUACUGUGAAACAAAUGUUCUUAUAUUCUACUGUUUCCACAUUCAACAGAGGAUUGAGCAUCA
B7: 60593859_60597351_2893_3pUTR_ENSMUSG00000049323_ENSMUST00000056907|mouse|control|control (ssRNA)
RNA: GGGAGUUCUACAGUCCGACGAUCCAGCGUAGGGUCUUGCUGUCCAGGUCCAGGAUGCUUGUAUAACGGCUGUAACGGCUCAGGGUAUGGAGGGUACCCACAUUGGCAGGAGAGGCCACUCUUUGUAGGCCAAUAAGCUUCCACCAACAGAGGAUUGAGCAUCA
B8: chr13:108984363:108984364:+_ENSMUSG00000021694_ENSMUST00000054835|mus_hu|FALSE|FALSE (ssRNA)
RNA: GGGAGUUCUACAGUCCGACGAUCCCCACAUUUAGGGCUAAUUUAGCUGUCAGGAAUAGACCAUACAGUUGAAAAAAACACAGUCUCAUUUAAAAAGUUUCAGCAGAGACAAAAAGGUACUAAAGAUGAUAUUCAUCCUUCUUCCAACAGAGGAUUGAGCAUCA
B9: chr15:98516890:98516891:+_ENSG00000140450_ENST00000268042|hu_mus|motif|central (ssRNA)
RNA: GGGAGUUCUACAGUCCGACGAUCAAUAAAAAUUUUAAAAAGCAAGUGAACUUACCAAAAAAAAAAACACAACCUUUGCCGGCUGAGUUUCUUAUUGUGCAAAACAGAGACACAGAAAGUAAAGUUGUGCUCCAGGGGAAGGGACAACAGAGGAUUGAGCAUCA
B10: chr8:26941818:26941819:-_ENSMUSG00000031575_ENSMUST00000166078|mus_hu|FALSE|FALSE (ssRNA)
RNA: GGGAGUUCUACAGUCCGACGAUCACUAGUAGACACAGCACUGCUCUGUUUUUGGUUGUCAUAAGCAGGACCAAUGUUACUAAGGUCCUGAUCCAAAAGUCCAAAUUUGGGGUAAUCUUCUUCUGGAUCUUUACUGCCUGGAUCCAACAGAGGAUUGAGCAUCA
B11: chr7:5008886:5008887:+_ENSMUSG00000035228_ENSMUST00000045543|mus_hu|FALSE|FALSE (ssRNA)
RNA: GGGAGUUCUACAGUCCGACGAUCCUCAUCGCGGGCCACUGCCAGGCCUAAGGAAGAGGCAGGUGCAGGGGGAAACUGCCCCAACUUCCCAGGGUAGGAGGAGGUCCAGCCCGUGCGCGCUGCCUCCUCUACCUUCGGGGCCCCCAACAGAGGAUUGAGCAUCA
B12: chr6:114281168:114281169:-_ENSG00000196591_ENST00000368632|hu_hu|hu_hu_hu_mus_True|38_88 (ssRNA)
RNA: GGGAGUUCUACAGUCCGACGAUCUUCCAUUUUUCGGUAUAAACCAUAAUUUAACAGCAAGUUAUGAGUCAUCCGGAUUCUAUGAGGCUUCAUGGGAUGACCCUGUCCAUAAUAAUAAUUGCCAAUAUCACCAUCAUAGUAGUACAACAGAGGAUUGAGCAUCA
B13: chr2:35989780:35989781:-_ENSMUSG00000026889_ENSMUST00000028251|mus_mus|motif|central (ssRNA)
RNA: GGGAGUUCUACAGUCCGACGAUCGCAUUCUCCAGGGGAAGAGUUUUGGUUUCUGUUUCCAUCAAUCUCUGAGAAAUACUGCGGGCCUCAGAGCUGUGCCCUCAGCUCAUGCCCCGAAAGCAGCUUCCGACGCUGGGGUCCGAGCAACAGAGGAUUGAGCAUCA
B14: chr4:76721835:76721836:+_ENSG00000138768_ENST00000264904|hu_mus|hu_hu_hu_mus_True|38_68 (ssRNA)
RNA: GGGAGUUCUACAGUCCGACGAUCGUUUGGCUGGGGUUUCUGAGACGCUCUGGAAUAUAACUCAUGUUGCUAAUAAAAUCCUAGUUUCUCUAUGAAAUCUCUUUGCCCAAUCCUCUUCUCUAUUAGUUGCUUUAGUUUCUCUUUCAACAGAGGAUUGAGCAUCA
B15: chr6:114281168:114281169:-_ENSG00000196591_ENST00000368632|hu_hu|hu_hu_hu_mus_True|78_78 (ssRNA)
RNA: B12 RNA with A53G, A66G, U105G
B16: chr7:75932113:75932114:+_ENSG00000106211_ENST00000248553|hu_hu|hu_hu_hu_mus_False|78_78 (ssRNA)
RNA: GGGAGUUCUACAGUCCGACGAUCCUGCGACCACUCAUCGGGCAACCGGGGCACCCCGAAGGCCUGGUCGAAGAGGCGGCUGUGUGCAGGGUACCAGUCCCGGAAUGGUUCCCAGCUCGGGCUCCGCAGCAGCGAGAAGGGCACCAACAGAGGAUUGAGCAUCA
B17: chr8:113366719:113366720:-_ENSMUSG00000033732_ENSMUST00000042012|mus_hu|motif|central (ssRNA)
RNA: GGGAGUUCUACAGUCCGACGAUCCAUAUUCUUAGAUGGCUGGUAUUCCAAAAUAACAAUUCGACCAGAGUCACUGCCAACGGCAAUGUAGUCUUUGGUGCCACCUGUCAGCCUAAAGGCCAUGAGUGACCGGAUAACACCGAACAACAGAGGAUUGAGCAUCA
B18: chr2:9724522:9724523:-_ENSG00000134308_ENST00000238081|hu_hu|motif|central (ssRNA)
RNA: GGGAGUUCUACAGUCCGACGAUCGGCUUUUUUGGGACUACAGUCAAUGAUUAGCAACACACAAUAGUGGUCCAACUCUCGGAAUAACAAUCACUAGACAAACUGGACACCCUCUCACAUGUGCACAAAUCUGCAUGGAAAAGUCAACAGAGGAUUGAGCAUCA
B19: chr1:174052150:174052151:+_ENSMUSG00000026553_ENSMUST00000135192|mus_mus|motif|central (ssRNA)
RNA: GGGAGUUCUACAGUCCGACGAUCCCUUCUGUCUCGUACUGGAAUUGACAGGAAGGUGGUGGGAAGGGAGGAGUAUAUACGGAGAAUCUGAUAAACAAAUGGCCAGCACAUAGUUUUCAUUGUUCCUUGGAAGGCCUAAGCUGACAACAGAGGAUUGAGCAUCA
B20: chr7:65705475:65705476:+_ENSG00000169902_ENST00000304842|hu_hu|hu_hu_hu_mus_True|98_98 (ssRNA)
RNA: GGGAGUUCUACAGUCCGACGAUCUCUAUUCGGUGAUGGCAUUCCAUGGCAUGCUGGCCCAGGUAAAACACGGUCACAGAACUAAUCACCAGACACGCCAAGAGUAAGUUCUGCUUCAGCUUCCCAACCAUCUUGAUGUGGUUACAACAGAGGAUUGAGCAUCA
B21: chr3:196311055:196311056:+_ENSG00000174013_ENST00000440469|hu_mus|motif|central (ssRNA)
RNA: GGGAGUUCUACAGUCCGACGAUCGGCUUUUGGAAGUCCUCGAAAGGCAACCCCCAGGAACUCAUACCCACGCUCAAAAGCGGAAGUCUUAUCCUCCAUGUCCAGGAUGACUCGGAUUCUCUCUCCUAUCUGAUACUUUGGUGCCAACAGAGGAUUGAGCAUCA
B22: chr9:122289238:122289239:+_ENSMUSG00000032540_ENSMUST00000156520|mus_mus|motif|central (ssRNA)
RNA: GGGAGUUCUACAGUCCGACGAUCUCCUGUCUUUUACAUCAAAACCUAACCCUUUCGUUCCAUUUCAAAAUGAAAUAUUCGGAACUCCAUCUCAAAAAUGAAGUAUUCUAAAUUGAAAUCUUUUUACAUAAAAAUACUUGGGUUCAACAGAGGAUUGAGCAUCA

molecular target: T1, UNK ZnF1-3; assay: nsRBNS (natural sequence RNA bind-n-seq); RBNS binding buffer (assumed for nsRBNS): 25 mM Tris pH 7.5, 150 mM KCl, 3 mM MgCl2, 0.01% Triton X-100, 500 ug/ml BSA, 20 U/ml SUPERase-In, 4 C; UNK is unkempt and MSI1 is Musashi-1; names of the RNAs are library labels; protein concentration not given here; high values mean tight binding

Binder	binding signal
B1	0.826 enrichment R
B2	1.32 enrichment R
B3	0.856 enrichment R
B4	0.373 enrichment R
B5	1.69 enrichment R
B6	1.04 enrichment R
B7	1.01 enrichment R
B8	0.929 enrichment R
B9	1.38 enrichment R
B10	0.652 enrichment R
B11	0.569 enrichment R
B12	0.918 enrichment R
B13	0.754 enrichment R
B14	0.449 enrichment R
B15	0.636 enrichment R
B16	0.63 enrichment R
B17	0.556 enrichment R
B18	1.6 enrichment R
B19	1.28 enrichment R
B20	0.571 enrichment R
B21	1.11 enrichment R
B22	0.92 enrichment R
